Source: US10532068B2, “Dual molecular delivery of oligonucleotides and peptide containing conjugates” (Merck Sharp & Dohme Corp., priority 2013, dated 2020)
Not every detail of the peptide structures is certain; ends, links or a residue may be inferred. *1 amine or outer side, *2 acyl side, *3 side chain or, on linkers, in order; H or OH if unused. Where a SMILES comes first, the peptide text is derived from it. [ ]: non-standard residue; d: D form. The star is where a group is joined. X2 = CC(=O)N[C@H]1[C@H](OCCOCCn2cc(CN(CCCC[C@@H](C(=O)*)N(Cc3cn(CCOCCO[C@@H]4O[C@H](CO)[C@H](O)[C@H](O)[C@H]4NC(C)=O)nn3)Cc3cn(CCOCCO[C@@H]4O[C@H](CO)[C@H](O)[C@H](O)[C@H]4NC(C)=O)nn3)Cc3cn(CCOCCO[C@@H]4O[C@H](CO)[C@H](O)[C@H](O)[C@H]4NC(C)=O)nn3)nn2)O[C@H](CO)[C@H](O)[C@@H]1O; PABC = O=C(OCc1ccc(N[*:1])cc1)[*:2]; Cit = NC(=O)NCCC[C@H](N)C(=O)O

Tests used:
CTNNB1 [1] = assay: In Vitro DMD Assay: mRNA silencing enhancement by peptide conjugates after siRNA-IV treatment of primary mouse hepatocytes (RT-qPCR); assay type: cell-based; settings: siRNA-IV 125 nM
CTNNB1 [2] = assay: In vivo evaluation in mice: liver mRNA knockdown measurement (TaqMan qPCR); set-up: species or system CD-1 mice
Method: Female CD-1 mice (Charles River) were injected in accordance with either a sequential dosing paradigm or a co-dosing paradigm. In the sequential dosing paradigm, the targeted siRNA (SCE) is dosed at t=0 and the targeted peptide is separately dosed up to 2 hr before the SCE (−2 hr) or up to 24 hr after the SCE (+24 hr). In the co-dosing paradigm, the SCE and peptides are co-formulated and dosed together in the same formulation as a single injection at t=0. The mice were dosed either by intravenous (i.v.) or subcutaneous (s.c.) injection of SCE and peptide. For the i.v. doses, the compounds were injected into the tail vein of the mice. For the s.c. doses, the compounds were injected in the subcutaneous space on the back of the mouse between the shoulder blades. At the indicated harvest times (measured from t=0 when the siRNA was dosed, regardless of when the peptide was dosed), the animals were sacrificed and 3 mm liver punches were collected, preserved in RNAlater (Ambion), and stored at 4° C. Separate 5 mm liver punches were collected, placed in 96-well plates, frozen on dry ice, and stored at −80° C. until use.
The 3 mm liver punches were removed from RNAlater and homogenized in Trizol (Invitrogen) using a bead mill tissue lyser (Qiagen); disruption was performed for two 5-minute cycles at 30 Hz. RNA extraction was performed using 1-bromo-2-chloropropane (Acros Organics) and total RNA was isolated from the aqueous phase using the MagMax RNA isolation method (Ambion). […] TaqMan qPCR analysis was performed with an ABI 7900 Real-Time PCR System using TaqMan Fast Advanced Master Mix (Applied Biosystems). All TaqMan probes and primers for CTNNB1 and PPIB (housekeeping gene) were purchased from Applied Biosystems as pre-validated gene expression assays. Results are calculated by the comparative Ct method, where the difference between the CTNNB1 Ct value and the PPIB Ct value (ΔCt) is calculated and then further normalized relative to the PBS control by taking a second difference (ΔΔCt), as described previously (1).

## CC[C@@H](C)[C@@H](NC(=O)[C@@H](CC(C)C)NC(=O)[C@@H](CC(N)=O)NC(=O)[C@@H](CCC(=O)O)NC(=O)[C@@H](CC(C)C)NC(=O)CNC(=O)[C@@H](CCC(=O)O)NC(=O)[C@@H](CCC(=O)O)NC(=O)[C@@H](CC(C)C)NC(=O)[C@@H](CC(C)C)NC(=O)[C@@H](CCC(=O)O)NC(=O)[C@@H](CCC(=O)O)NC(=O)[C@H](NC(=O)[C@@H](CCC(=O)O)NC(=O)[C@@H](CCC(=O)O)NC(=O)[C@@H](CC(C)C)NC(=O)[C@@H](CC(C)C)NC(=O)CNC(C)=O)[C@H](C)CC)C(=O)N[C@H](CC(=O)O)C(=O)N[C@H](Cc1c[nH]c2ccccc12)C(=O)N[C@H](Cc1c[nH]c2ccccc12)C(=O)N[C@H](CC(N)=O)C(=O)N[C@H](CO)C(=O)N[C@H](CSSCCNC(=O)[C@H](CCCCN(Cc1cn(CCOCCO[C@@H]2O[C@H](CO)[C@H](O)[C@H](O)[C@H]2NC(C)=O)nn1)Cc1cn(CCOCCO[C@@H]2O[C@H](CO)[C@H](O)[C@H](O)[C@H]2NC(C)=O)nn1)N(Cc1cn(CCOCCO[C@@H]2O[C@H](CO)[C@H](O)[C@H](O)[C@H]2NC(C)=O)nn1)Cc1cn(CCOCCO[C@@H]2O[C@H](CO)[C@H](O)[C@H](O)[C@H]2NC(C)=O)nn1)C(N)=O [TGN-S-S-SEQ ID NO: 1702 (D)]
CTNNB1 [1]; Targeted peptide dose 8 nM
  In vitro dddCt (vs. baseline SCE dose): −0.68
CTNNB1 [1]; Targeted peptide dose 40 nM
  In vitro dddCt (vs. baseline SCE dose): −1.09
CTNNB1 [1]; Targeted peptide dose 200 nM
  In vitro dddCt (vs. baseline SCE dose): −1.75
CTNNB1 [1]; Targeted peptide dose 1000 nM
  In vitro dddCt (vs. baseline SCE dose): −2.1
CTNNB1 [1]; Targeted peptide dose 5000 nM
  In vitro dddCt (vs. baseline SCE dose): −2.47

## CC[C@@H](C)[C@@H](NC(=O)[C@@H](CC(C)C)NC(=O)[C@@H](CC(N)=O)NC(=O)[C@@H](CCC(=O)O)NC(=O)[C@@H](CC(C)C)NC(=O)CNC(=O)[C@@H](CCC(=O)O)NC(=O)[C@@H](CCC(=O)O)NC(=O)[C@@H](CC(C)C)NC(=O)[C@@H](CC(C)C)NC(=O)[C@@H](CCC(=O)O)NC(=O)[C@@H](CCC(=O)O)NC(=O)[C@H](NC(=O)[C@@H](CCC(=O)O)NC(=O)[C@@H](CCC(=O)O)NC(=O)[C@@H](CC(C)C)NC(=O)[C@@H](CC(C)C)NC(=O)CNC(C)=O)[C@H](C)CC)C(=O)N[C@H](CC(=O)O)C(=O)N[C@H](Cc1c[nH]c2ccccc12)C(=O)N[C@H](Cc1c[nH]c2ccccc12)C(=O)N[C@H](CC(N)=O)C(=O)N[C@H](CO)C(=O)N[C@H](CSSCCNC(=O)[C@H](CCCCN(Cc1cn(CCOCCO[C@@H]2O[C@H](CO)[C@H](O)[C@H](O)[C@H]2NC(C)=O)nn1)Cc1cn(CCOCCO[C@@H]2O[C@H](CO)[C@H](O)[C@H](O)[C@H]2NC(C)=O)nn1)N(Cc1cn(CCOCCO[C@@H]2O[C@H](CO)[C@H](O)[C@H](O)[C@H]2NC(C)=O)nn1)Cc1cn(CCOCCO[C@@H]2O[C@H](CO)[C@H](O)[C@H](O)[C@H]2NC(C)=O)nn1)C(N)=O [TGN-S-S-SEQ ID NO: 1702(D)]
CTNNB1 [2]; Table 6, mice, sequential, peptide IV 15 min after siRNA IV, TGN-L-siRNA-III 0.25 mg/kg, peptide 5 mg/kg
  In vivo mRNA knockdown (%): 75%

## CC[C@@H](C)[C@@H](NC(=O)[C@@H](CCC(=O)O)NC(=O)CNC(=O)[C@@H](Cc1ccccc1)NC(=O)[C@@H](CC(C)C)NC(=O)CNC(=O)OCc1ccc(NC(=O)[C@H](CCCNC(N)=O)NC(=O)[C@@H](NC(=O)[C@H](CCCCN(Cc2cn(CCOCCO[C@@H]3O[C@H](CO)[C@H](O)[C@H](O)[C@H]3NC(C)=O)nn2)Cc2cn(CCOCCO[C@@H]3O[C@H](CO)[C@H](O)[C@H](O)[C@H]3NC(C)=O)nn2)N(Cc2cn(CCOCCO[C@@H]3O[C@H](CO)[C@H](O)[C@H](O)[C@H]3NC(C)=O)nn2)Cc2cn(CCOCCO[C@@H]3O[C@H](CO)[C@H](O)[C@H](O)[C@H]3NC(C)=O)nn2)C(C)C)cc1)C(=O)N[C@H](CCC(=O)O)C(=O)N[C@H](CCC(=O)O)C(=O)N[C@H](CC(C)C)C(=O)N[C@@H](C(=O)N[C@H](CCC(=O)O)C(=O)N[C@H](CCC(=O)O)C(=O)NCC(=O)N[C@H](CC(C)C)C(=O)N[C@H](CCC(=O)O)C(=O)N[C@H](CC(N)=O)C(=O)N[C@H](CC(C)C)C(=O)N[C@@H](C(=O)N[C@H](CC(=O)O)C(=O)N[C@H](Cc1c[nH]c2ccccc12)C(=O)NCC(=O)N[C@H](CC(N)=O)C(=O)NCC(N)=O)[C@H](C)CC)[C@H](C)CC [TGN-ECL-SEQ ID NO: 1801 (D)] (X2-V[Cit][PABC]G[dL][dF]G[dE][dI][dE][dE][dL][dI][dE][dE]G[dL][dE][dN][dL][dI][dD][dW]G[dN]G-NH2)
CTNNB1 [2]; Table 8 (disulfide vs. ECL vs. CDM linkage), TGN-L-siRNA-II 0.25 mg/kg, targeted peptide 1 mg/kg
  In vivo mRNA knockdown (%): 29.6%
CTNNB1 [2]; Table 8 (disulfide vs. ECL vs. CDM linkage), TGN-L-siRNA-II 0.25 mg/kg, targeted peptide 3 mg/kg
  In vivo mRNA knockdown (%): 47.4%
